Experimental data as given in the GPR68 mutational scans of Howard et al. (2025).
Scores whose standard error is large were omitted. Not listed are two conditions whose scores span a narrow range. Names with del lack the residues named; names with ins carry added residues between the positions named. For part of these data: How much ogerin was present is not stated here.

B1: GPR68, Q15743 (parent)
chain: MGNITADNSSMSCTIDHTIHQTLAPVVYVTVLVVGFPANCLSLYFGYLQIKARNELGVYLCNLTVADLFYICSLPFWLQYVLQHDNWSHGDLSCQVCGILLYENIYISVGFLCCISVDRYLAVAHPFRFHQFRTLKAAVGVSVVIWAKELLTSIYFLMHEEVIEDENQHRVCFEHYPIQAWQRAINYYRFLVGFLFPICLLLASYQGILRAVRRSHGTQKSRKDQIQRLVLSTVVIFLACFLPYHVLLLVRSVWEASCDFAKGVFNAYHFSLLLTSFNCVADPVLYCFVSETTHRDLARLRGACLAFLTCSRTGRAREAYPLGAPEASGKSGAQGEEPELLTKLHPAFQTPNSPGSGGFPTGRLA

How the values were obtained:
[1] = variants of: B1; assay: cAMP reporter score (Enrich2 score, wild type = 0); higher = more signal; HEK293T, FACS bins
[2] = variants of: B1; assay: surface expression score (Enrich2 score, wild type = 0); higher = more signal; HEK293T, FACS bins

Work on MGNITADNSSMSCTIDHEIHQTLAPVVYVTVLVVGFPANCLSLYFGYLQIKARNELGVYLCNLTVADLFYICSLPFWLQYVLQHDNWSHGDLSCQVCGILLYENIYISVGFLCCISVDRYLAVAHPFRFHQFRTLKAAVGVSVVIWAKELLTSIYFLMHEEVIEDENQHRVCFEHYPIQAWQRAINYYRFLVGFLFPICLLLASYQGILRAVRRSHGTQKSRKDQIQRLVLSTVVIFLACFLPYHVLLLVRSVWEASCDFAKGVFNAYHFSLLLTSFNCVADPVLYCFVSETTHRDLARLRGACLAFLTCSRTGRAREAYPLGAPEASGKSGAQGEEPELLTKLHPAFQTPNSPGSGGFPTGRLA [T18E] yielded a cAMP reporter score ([1]; pH 5.5) of -0.404, a cAMP reporter score ([1]; pH 6, modulator: ogerin) of -0.557 and a cAMP reporter score ([1]; pH 6.5, modulator: ogerin) of -1.44. It also gave a surface expression score [2] of -2.5.

With MGNITADNSSMSCTIDHFIHQTLAPVVYVTVLVVGFPANCLSLYFGYLQIKARNELGVYLCNLTVADLFYICSLPFWLQYVLQHDNWSHGDLSCQVCGILLYENIYISVGFLCCISVDRYLAVAHPFRFHQFRTLKAAVGVSVVIWAKELLTSIYFLMHEEVIEDENQHRVCFEHYPIQAWQRAINYYRFLVGFLFPICLLLASYQGILRAVRRSHGTQKSRKDQIQRLVLSTVVIFLACFLPYHVLLLVRSVWEASCDFAKGVFNAYHFSLLLTSFNCVADPVLYCFVSETTHRDLARLRGACLAFLTCSRTGRAREAYPLGAPEASGKSGAQGEEPELLTKLHPAFQTPNSPGSGGFPTGRLA [T18F] the cAMP reporter score ([1]; pH 5.5) was 0.93, the cAMP reporter score ([1]; pH 6) was 0.314 and the cAMP reporter score ([1]; pH 6, modulator: ogerin) was 0.955. For the same variant, the cAMP reporter score ([1]; pH 6.5, modulator: ogerin) was 0.472 and the surface expression score [2] was 1.92.
